# Measured values from PubChem BioAssay AID720709 (National Center for Advancing Translational Sciences (NCATS), 2013).
# Among all 360,000 compounds or so, about 520 (0.14%) were called active. This list was built around the results that the source calls inconclusive (neither active nor inactive); the mix of calls is not that of the screen. The call rests on the fitted dose curve; in most records, active means well fitted inhibition curve with a large enough effect; inconclusive means small, poorly fitted or top-dose-only effect; inactive means no such curve, though single readings can be large or run the other way. No potency is given beside an inconclusive call; the fits are too rough.
# Biological target: Rap guanine nucleotide exchange factor 3 (Homo sapiens) (UniProt O95398)
# Assay: qHTS for Antagonist of cAMP-regulated guanine nucleotide exchange factor 3 (EPAC1): primary screen; further: nearly all actives have a fitted effect of over 50% in size;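 on activity change, negative = inhibition: plate controls were vehicle for no effect and positive control for full effect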
# Conditions: EPAC1 GEF assay, Rap1b-BODIPY-GDP exchange fluorescence; activity change, negative = inhibition: at 115 µM (top of the series)
# Potency means the concentration at half of the fitted maximal effect; tags describe the fitted curve by direction and shape.
# Chain of UniProt O95398 (O95398 whole entry, looked up): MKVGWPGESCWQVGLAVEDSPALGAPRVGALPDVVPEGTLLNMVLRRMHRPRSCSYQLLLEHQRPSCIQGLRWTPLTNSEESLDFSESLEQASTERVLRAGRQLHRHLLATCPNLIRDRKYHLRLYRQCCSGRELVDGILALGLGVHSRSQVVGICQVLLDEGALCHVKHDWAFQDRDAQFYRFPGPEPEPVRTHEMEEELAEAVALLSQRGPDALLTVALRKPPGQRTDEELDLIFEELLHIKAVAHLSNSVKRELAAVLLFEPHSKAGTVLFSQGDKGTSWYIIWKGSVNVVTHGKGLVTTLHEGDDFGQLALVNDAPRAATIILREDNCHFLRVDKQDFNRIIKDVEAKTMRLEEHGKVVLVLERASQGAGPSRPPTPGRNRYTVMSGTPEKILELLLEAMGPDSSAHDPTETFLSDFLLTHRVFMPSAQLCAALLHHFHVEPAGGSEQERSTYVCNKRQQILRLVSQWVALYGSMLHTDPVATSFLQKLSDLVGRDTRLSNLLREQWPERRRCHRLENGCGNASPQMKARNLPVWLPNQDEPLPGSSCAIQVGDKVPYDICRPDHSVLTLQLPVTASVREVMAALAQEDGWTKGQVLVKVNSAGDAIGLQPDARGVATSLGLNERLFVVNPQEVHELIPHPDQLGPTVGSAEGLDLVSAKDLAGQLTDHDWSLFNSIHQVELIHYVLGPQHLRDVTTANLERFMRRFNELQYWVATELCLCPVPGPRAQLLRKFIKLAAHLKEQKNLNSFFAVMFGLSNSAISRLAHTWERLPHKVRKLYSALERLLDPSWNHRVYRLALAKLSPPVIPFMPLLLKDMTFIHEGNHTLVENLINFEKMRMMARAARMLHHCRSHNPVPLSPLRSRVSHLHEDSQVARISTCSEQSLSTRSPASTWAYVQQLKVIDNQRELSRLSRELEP
Structure (SMILES),"activity change, negative = inhibition",Potency
O=c1c2ccccc2nc(/C=C/c2ccccc2F)n1-c1ccccc1O,inactive: -9.65%,–
Cc1c(C)c2ccc(OCC(=O)N3C[C@H]4C[C@@H](C3)c3cccc(=O)n3C4)cc2oc1=O,inactive: 4.5%,–
Cc1cccc(N2C(=O)NC(=O)/C(=C\c3cccn3-c3ccc(Cl)cc3)C2=O)c1,–,"inconclusive [inhibitor, single point]"
Cc1ccc(-n2c(C)cc(/C=C3/C(=O)NC(=O)N(Cc4ccco4)C3=O)c2C)cc1,–,"inconclusive [inhibitor, full curve, poor fit]"
C=CCN1C(=O)/C(=C/c2ccc(N3CCOCC3)o2)C(=O)NC1=S,inactive: 12.9%,–
CN(C)C(=O)Oc1ccc(-c2nnco2)cc1,–,"inconclusive [inhibitor, partial curve]"
CCCCn1c(NC(=O)c2ccc(Br)o2)c(C(=O)OCC)c2nc3ccccc3nc21,–,"inconclusive [inhibitor, partial curve, poor fit]"
O=c1[nH]c(O)c(C=Nc2ccccc2Sc2ccccc2)c(=O)[nH]1,–,"inconclusive [inhibitor, partial curve]"
C[C@@H]1O[C@@H](Oc2c(-c3ccc(O)c(O)c3)oc3cc(O)cc(O)c3c2=O)[C@H](O)[C@H](O)[C@H]1O,–,"inconclusive [inhibitor, partial curve, poor fit]"
O=C1NC(=O)C(=Cc2ccccc2OCCOc2ccc([N+](=O)[O-])cc2)C(=O)N1,inactive: -6.7%,–
CCCC[C@@H](C)C[C@@H](C)C(=O)N(C)[C@@H](CC(C)C)C(=O)N[C@H](C(=O)N(C)[C@H](C(=O)N1C[C@@H](O)C[C@H]1C(=O)N1C(=O)C=C[C@@H]1C)C(C)C)C(C)OC(C)=O (stereo not given in full),–,"inconclusive [inhibitor, full curve]"
CC(C)OP(=O)(OC(C)C)C(O)c1ccc(Br)cc1 (stereo not given),–,"inconclusive [inhibitor, partial curve]"
CN1Cc2c(c(C#N)c(N)n(C)c2=S)CC1(C)C,inactive: 41.2%,–
CN1CCN(C(=O)Cc2ccccc2)CC1,–,"inconclusive [inhibitor, partial curve]"
O=c1[nH]c2ccccc2n1C1CCN(C(c2nnnn2Cc2ccccc2)C2CC2)CC1 (stereo not given),inactive: -10.9%,–
CCOC(=O)C1(CCc2ccccc2)CCN(Cc2ccc(NC(C)=O)cc2)CC1,–,"inconclusive [inhibitor, single point]"
Nc1c(C(=O)NCc2ccco2)c2nc3ccccc3nc2n1Cc1ccc(F)cc1,–,"inconclusive [inhibitor, partial curve]"
Oc1c(Cl)c(Cl)c(Cl)c(Cl)c1Cl,inactive: -22.2%,–
COc1ccc(OC)c(N2C(=O)NC(=O)/C(=C\c3ccc([N+](=O)[O-])s3)C2=O)c1,–,"inconclusive [inhibitor, partial curve, poor fit]"
COCCCNC(=O)c1c(NC(=O)c2ccco2)n(Cc2ccccc2)c2nc3ccccc3nc12,–,"inconclusive [inhibitor, full curve]"
Cc1nc2ccccn2c1P(=S)(c1ccccc1)c1ccccc1,–,"inconclusive [inhibitor, full curve, poor fit]"
O=P(NC(c1ccccc1)c1ccccc1)(Oc1ccccc1)Oc1ccccc1,inactive: 6.66%,–

Structure (SMILES),"activity change, negative = inhibition",Potency
C[C@@H]1C[C@@H]2O[C@H]2/C=C\C=C\C(=O)Cc2c(Cl)c(O)cc(O)c2C(=O)O1,–,"inconclusive [inhibitor, partial curve, poor fit]"
C[C@H](CCC(=O)O)[C@H]1CC[C@H]2[C@@H]3CC[C@@H]4C[C@H](O)CC[C@]4(C)[C@H]3CC[C@]12C,–,"inconclusive [inhibitor, partial curve, poor fit]"
Cc1cccc(OCCn2cccc2/C=C2/C(=O)NC(=O)N(Cc3ccco3)C2=O)c1,–,"inconclusive [inhibitor, partial curve]"
CC(=O)Nc1ccc(N=Cc2c(O)n(Cc3ccco3)c(=O)[nH]c2=O)cc1,–,"inconclusive [inhibitor, single point]"
CCc1ccc2nc(N3CCC(C(=O)N4CCC5(CC4)OCCO5)CC3)sc2c1,–,"inconclusive [inhibitor, single point]"
CN1C(=O)/C(=C/c2cccn2-c2ccc3ccccc3c2)C(=O)NC1=S,–,active: 31.6 µM
CC(C)CCOP(=O)(c1ccc(N(C)C)cc1)C(O)c1c(Cl)cccc1Cl (stereo not given),–,"inconclusive [inhibitor, full curve, poor fit]"
NS(=O)(=O)c1ccc(-c2ccc(C=C3C(=O)NC(=O)NC3=O)o2)cc1,–,"inconclusive [inhibitor, single point]"
CCOP(=O)(OCC)C(Nc1cccc(C(F)(F)F)c1)c1ccc(C)cc1 (stereo not given),–,"inconclusive [inhibitor, partial curve]"
OC(CNCCc1c[nH]c2ccccc12)c1ccccc1 (stereo not given),inactive: -7.96%,–
CSc1ccc(C(=O)C2CCCN(Cc3cc4ccccc4[nH]3)C2)cc1 (stereo not given),–,"inconclusive [inhibitor, partial curve]"
Cc1cc(/C=C2\C(=O)NC(=O)N(c3ccc(F)cc3)C2=O)c(C)n1-c1cccc(C(=O)O)c1,–,"inconclusive [inhibitor, single point]"
Oc1ccc(O)c2c1C1(Cl)C(Cl)=C(Cl)C2(Cl)C1(Cl)Cl,–,"inconclusive [inhibitor, single point]"
COC(=O)C1=C(c2ccc(-c3ccccc3)c(F)c2)C[C@@H]2CC[C@H]1N2C(=O)NCC1CC1,–,"inconclusive [inhibitor, full curve, poor fit]"
CSCCC(NS(=O)(=O)c1ccc2c(c1)oc(=O)n2C)C(=O)NC1CCCc2ccccc21 (stereo not given),–,"inconclusive [inhibitor, single point]"
O=C1NC(=O)N(Cc2ccccc2)C(=O)/C1=C\c1ccco1,–,"inconclusive [inhibitor, partial curve]"
Cc1ccc(N2C(=O)NC(=O)/C(=C\c3cccn3C(C)(C)C)C2=O)cc1,inactive: -10.7%,–
Nc1cc(C(=O)Nc2ccc(Cl)cc2)ccc1N1CC2CC(C1)c1cccc(=O)n1C2 (stereo not given),–,"inconclusive [inhibitor, single point]"
O=C(N1CCCCCC1)N1CC1,inactive: -12.6%,–
Cc1ccc(/C=C2\C(=O)NC(=S)N(c3cccc(F)c3)C2=O)o1,–,"inconclusive [inhibitor, partial curve]"
CCCCCn1c(N)c(C(=O)NCCN2CCOCC2)c2nc3ccccc3nc21,inactive: -12.7%,–
O=c1c(O)c(-c2ccc(O)c(O)c2)oc2cc(O)cc(O)c12,–,"inconclusive [inhibitor, full curve]"

Structure (SMILES),"activity change, negative = inhibition",Potency
O=C(O)c1ccccc1-c1ccc(C=C2C(=O)N(c3ccccc3)C(=S)N(c3ccccc3)C2=O)o1,inactive: -19.7%,–
CCn1nc(-c2cccs2)nc2c(=O)n(C)c(=O)nc1-2,–,"inconclusive [inhibitor, full curve]"
CCN(CC)C(=O)Cn1cc(/C=C2\C(=O)NC(=O)N(c3ccccc3F)C2=O)c2ccccc21,–,"inconclusive [inhibitor, partial curve]"
O=C(O)CCn1cc(C=C2C(=O)NC(=S)NC2=O)c(-c2cccc(Br)c2)n1,inconclusive: -19.5% [inhibitor],–
CCCCn1c(NS(=O)(=O)c2ccccc2)c(C(=O)OCC)c2nc3ccccc3nc21,inactive: -17.1%,–
COc1cc2c(cc1OC)CN(c1ccc([N+](=O)[O-])c(C(F)(F)F)c1)CC2,–,"inconclusive [inhibitor, full curve]"
CCOC(=O)c1c(/N=C/c2c(O)n(-c3cccc(C)c3)c(=O)[nH]c2=O)sc2c1CCCC2,inactive: -20.5%,–
O=C(Cn1nc(Cc2cccnc2)c2ccccc2c1=O)N1CCC2(CC1)OCCO2,inactive: 11.2%,–
O=c1[nH]c2ccccc2s1,–,"inconclusive [inhibitor, single point]"
CCCCCn1c(=O)c(C(=O)Nc2ccccc2N)c(O)c2ccccc21,–,"inconclusive [inhibitor, partial curve]"
O=C(CN1CC=C(c2ccccc2)CC1)NC(=O)NCc1ccco1,inactive: -10.8%,–
CCN(C(=O)CN1CC=C(c2ccccc2)CC1)c1c(N)n(Cc2ccccc2)c(=O)[nH]c1=O,–,"inconclusive [inhibitor, full curve, poor fit]"
O=C(C[N+]12CCC(CC1)C(OC(=O)c1ccccc1)C2)c1ccc([N+](=O)[O-])cc1 (stereo not given),–,"inconclusive [inhibitor, single point]"
O=P(Nc1ccccc1Cl)(c1ccccc1)c1nc2c(s1)CCCC2 (stereo not given),–,"inconclusive [inhibitor, single point]"
CC(=O)n1cc(C=C2C(=O)NC(=O)NC2=O)c2ccccc21,inactive: -26.1%,–
O=C1C=C(N2CC2)c2ccccc2C1=O,–,"inconclusive [inhibitor, partial curve]"
COC(=O)c1cn(Cc2ccc(F)cc2)c2ccccc12,inactive: -2.24%,–
CN1C(=O)C(=Cc2ccc(N3CCOCC3)o2)C(=O)N(C)C1=O,inactive: -5.05%,–
Cc1cccc(N2C(=O)NC(=O)/C(=C\c3cc(C)n(-c4sc5c(c4C#N)CCCC5)c3C)C2=O)c1C,–,active: 35.5 µM
Cc1cc(N(CCCl)CCCl)ccc1C=NNC(=O)c1cccnc1,–,"inconclusive [inhibitor, partial curve, poor fit]"
N/C(=N\N=C/c1ccc(-c2ccc(O)c(C(=O)O)c2)o1)N[N+](=O)[O-],–,"inconclusive [inhibitor, partial curve]"
